In PubChem BioAssay AID902 (National Center for Advancing Translational Sciences (NCATS), 2007):
Out of some 130,000 compounds screened, about 1,900 (1.5%) were called active. Inconclusive results, whose numbers are uncertain, are shown with a selection of clear calls. Calls come from the whole dose curve; as a rule, active = well fitted cell-killing curve with a large enough effect; inconclusive = small, poorly fitted or top-dose-only effect; inactive = no such curve, though single readings can be large or run the other way. A potency beside an inconclusive call is a rough fit, not a confirmed value.

assay: qHTS Screen for Compounds that Selectively Target Cancer Cells with p53 Mutations: Cytotoxicity of p53ts Cells at the Nonpermissive Temperature; details: H1299-p53A138V viability at 39C, ATP luminescence, 24 h; activity change, negative = cell killing: at 46.1 µM (top of the series); note: nearly all actives have a fitted effect of over 55% in size
% is set by controls: 0 for no effect and ±100 for the full control effect; potency is the fitted concentration of half-maximal effect; tags give direction and shape of the fitted curve.

Row | SMILES | Potency | activity change, negative = cell killing
1 | CSc1ccc(CCNC(=O)CCCn2c(=O)c3cccn3c3ccccc32)cc1 | inconclusive: 1.26 µM [cytotoxic, partial curve] | 
2 | O=C1c2[nH]nc(-c3ccc(F)cc3)c2C(c2ccccc2F)N1c1ccccc1 (stereo unspecified) | inconclusive: 20 µM [cytotoxic, single point] | 
3 | Cc1cc2oc(=O)cc(Cn3nnc(-c4ccc(Cl)cc4)n3)c2cc1C(C)C |  | inactive: 4.3%
4 | CCCOc1ccc(N2C(=O)CC(SCCN)C2=O)cc1 (stereo unspecified) | active: 10 µM | 
5 | COc1ccc(CCNC(=O)C(C)n2nc(C)c3sc4ccccc4c3c2=O)c(OC)c1 (stereo unspecified) | active: 12.6 µM | 
6 | Cc1ccc(S(=O)(=O)Nc2ccc3nc(-c4cccc(Cl)c4)oc3c2)cc1 | inconclusive: 31.6 µM [cytotoxic, single point] | 
7 | COC(=O)c1cc2sccc2n1CC(=O)Nc1cc(Cl)ccc1OC | inconclusive: 20 µM [cytotoxic, partial curve] | 
8 | O=C(CSc1ncc2c(n1)-c1ccccc1N(Cc1ccc(Cl)cc1)S2(=O)=O)c1ccccc1 |  | inactive: 24.2%
9 | O=C(COc1ccc(Cl)cc1Cl)Nc1ccccn1 | active: 0.631 µM | 
10 | CCOC(=O)C1CCN(c2ncnc3c2c(-c2ccccc2)cn3-c2ccc(Cl)cc2)CC1 | inconclusive: 6.31 µM [cytotoxic, partial curve] | 
11 | CCOc1ccc(-c2cc(C(=O)O)c3ccccc3n2)c(OCC)c1 | inconclusive: 10 µM [cytotoxic, single point] | 
12 | Clc1ccccc1CSc1nc(NCCc2ccccc2)c2ccccc2n1 |  | inconclusive: -33.9% [cytotoxic]
13 | Cc1ccc(Cl)cc1N1CCN(C(=O)CCS(=O)(=O)c2ccc3c(c2)oc(=O)n3C)CC1 |  | inactive: -13.2%
14 | Cc1cc(C)cc(OCC(=O)Nc2cccc(-c3nnc(-c4ccco4)o3)c2)c1 |  | inactive: -4.13%
15 | COC(=O)c1ccc2nc(C)cc(Nc3cccc(Cl)c3C)c2c1 | inconclusive: 25.1 µM [cytotoxic, single point] | 
16 | Cc1c(Cl)cccc1NC(=O)Nc1ccc2snnc2c1 | inconclusive: 12.6 µM [cytotoxic, partial curve] | 
17 | Cc1ccc(CCNC(=O)CCn2nc(-c3ccc(C)cc3)ccc2=O)cc1 | inconclusive: 7.94 µM [cytotoxic, partial curve, poor fit] | 
18 | C=CCNc1ncnc2c1[nH]c1ccc(C)cc12 | inconclusive: 10 µM [cytotoxic, single point] | 
19 | N#C/C(=C\c1cc(Br)c(O)c(Br)c1)c1nc2ccccc2c(=O)[nH]1 |  | inactive: -11.8%
20 | CC(=O)Nc1ccc(NC(=O)c2cc(-c3ccc4c(c3)OCCO4)on2)cc1 | active: 1.58 µM | 
21 | COC(=O)c1c(NC(=O)c2ccc(S(=O)(=O)N(C)C3CCCCC3)cc2)sc2c1CCN(C)C2 | inconclusive: 0.398 µM [cytotoxic, full curve] | 
22 | COC(=O)c1ccccc1NC(=O)C1CCCN(c2nnc(C)c3c(C)n(-c4ccccc4)nc23)C1 (stereo unspecified) | inconclusive: 0.316 µM [cytotoxic, full curve, poor fit] | 
23 | CN1C(=O)C(O)(C2COC(C)(C)CC2=O)c2cc(Br)ccc21 (stereo unspecified) | inconclusive: 25.1 µM [cytotoxic, single point] | 
24 | CCc1ccc(NC(=O)CSc2ncc(S(=O)(=O)c3cc(C)ccc3C)c(=O)[nH]2)cc1 |  | inactive: -10.6%

Row | SMILES | Potency | activity change, negative = cell killing
25 | CC(C)(C)NC(=O)CSc1ncnc2c1nnn2Cc1ccccc1Cl | inconclusive: 20 µM [cytotoxic, single point] | 
26 | Cc1ccc(N2C(=O)c3ccccc3C2O)nc1 (stereo unspecified) | active: 5.01 µM | 
27 | N#Cc1cc2cc3c(cc2nc1N1CCCCC1)OCCO3 |  | inactive: -16.5%
28 | COc1ccc(OCC(=O)Nc2ccc3nn(-c4ccc(OC)cc4)nc3c2)cc1 |  | inconclusive: -33.3% [cytotoxic]
29 | CSc1nc(=O)c2c(n1C)NC(=O)CC2c1cc(F)cc(F)c1 (stereo unspecified) |  | inactive: -10.5%
30 | Cc1ccc2nc(Cl)c3cc(C(=O)NCCCN(C)Cc4ccccc4)sc3c2c1 | active: 12.6 µM | 
31 | COc1ccccc1CNc1nc2c(S(=O)(=O)c3ccccc3)nnn2c2ccc(Cl)cc12 | inconclusive: 15.8 µM [cytotoxic, single point] | 
32 | CCCCc1ccc(NC(=O)c2c(C)noc2C)cc1 | inconclusive: 25.1 µM [cytotoxic, single point] | 
33 | CN(C)c1ccc(Nc2nc3ccccc3n3nnnc23)cc1 | inconclusive: 15.8 µM [cytotoxic, single point] | 
34 | CCC1(C)Nc2ccccc2C(=O)N1O (stereo unspecified) |  | inactive: -15.7%
35 | COc1ccc(C2c3c(oc4ccccc4c3=O)C(=O)N2CCN2CCOCC2)cc1OC (stereo unspecified) |  | inactive: 10.1%
36 | Cc1cc(C)c(NS(=O)(=O)c2ccc(-c3coc(C)n3)cc2)c(C)c1 | inconclusive: 0.005 µM [cytotoxic, full curve, poor fit] | 
37 | Cc1ccc(-n2c(=O)c3c(C)c(C)sc3n(Cc3ccc(F)cc3Cl)c2=O)cc1C |  | inactive: -7.94%
38 | CC(C)(C)NC(=O)C(c1ccncc1)N(Cc1cccs1)C(=O)Cn1nnc(-c2ccc(F)cc2)n1 (stereo unspecified) |  | inactive: -11.6%
39 | Cc1ccc(N2CCN(C(=O)c3cnn(-c4ccc(C)c(C)c4)c3C3CCNCC3)CC2)c(C)c1 | active: 20 µM | 
40 | Cc1ccc(-n2ncc3c(NC4CCCCC4)ncnc32)cc1Cl | inconclusive: 25.1 µM [cytotoxic, single point] | 
41 | Clc1ccc(-c2nnc(SCc3nc4ccccc4[nH]3)o2)c(Cl)c1 |  | inactive: -8.01%
42 | COc1ccc2c(c1)CC(NC(=O)Nc1cc(Cl)ccc1OC)CO2 (stereo unspecified) |  | inactive: 1.02%
43 | CCc1ccc(OCCCSc2nc(-c3ccc(C(C)(C)C)cc3)nc3cc(=O)[nH]n23)cc1 | inconclusive: 31.6 µM [cytotoxic, single point] | 
44 | COc1cccc(CNC(=O)C2CCN(c3nc4ccc(Cl)cc4[nH]3)CC2)c1 |  | inactive: -20.1%
45 | CCOC(=O)c1cccc(NC(=O)c2ccc3c(c2)nnn3C2CCCC2)c1 | inconclusive: 31.6 µM [cytotoxic, single point] | 
46 | CC(C)c1nc(SCc2ccccn2)c2c(=O)n(C)c(=O)n(C)c2n1 |  | inactive: 6.11%
47 | COC(=O)C1C(c2ccccc2)C(C(=O)OCc2ccco2)C1c1ccccc1 (stereo unspecified) | inconclusive: 14.1 µM [cytotoxic, single point] | 
48 | CCOc1ccc(NC(=O)c2cc3c(-c4ccccc4F)nn(C)c3s2)cc1 | inconclusive: 15.8 µM [cytotoxic, single point] | 

Row | SMILES | Potency | activity change, negative = cell killing
49 | Cc1ccc(Cn2c(=O)n(-c3ccccc3)c(=O)c3ccc(C(=O)NCc4ccco4)cc32)cc1 | inconclusive: 20 µM [cytotoxic, single point] | 
50 | C=Cc1ccc(Cn2c(C(=O)O)c(CNCc3cccs3)c3ccc(C)cc32)cc1 | inconclusive: 3.16 µM [cytotoxic, full curve, poor fit] | 
51 | O=C1CC(c2ccncc2)c2cc3c(cc2N1)OCO3 (stereo unspecified) |  | inactive: 16.1%
52 | COc1ccc(OCC2c3cc(OC)c(OC)cc3CCN2C(=O)c2ccc(F)cc2)cc1 (stereo unspecified) | inconclusive: 3.98 µM [cytotoxic, single point] | 
53 | CCSc1nnc(NC(=O)c2ccccn2)s1 | active: 10 µM | 
54 | COC(=O)c1ccc(Cl)cc1NC(=O)N1CCCn2nc(C)cc21 | inconclusive: 3.98 µM [cytotoxic, single point] | 
55 | COc1cc(OC)c(NC(=O)CCCn2nc(C)c3sc4ccccc4c3c2=O)cc1Cl | active: 12.6 µM | 
56 | COc1nc(-c2ccc(C)cc2)ccc1-c1noc(-c2ccccc2Br)n1 |  | inactive: -10.7%
57 | COc1ccccc1NC(=O)c1ccc2c(Cl)c3c(nc2c1)CCCC3 | inconclusive: 12.6 µM [cytotoxic, single point] | 
58 | CC1=C(c2ccc(C)c(C)c2)S(=O)(=O)N=C1N1CCC(C(=O)NCCc2ccc(Cl)cc2)CC1 | active: 12.6 µM | 
59 | COc1cccc(NC(=O)c2oc3ccccc3c2NC(=O)c2ccc(C(F)(F)F)cc2)c1 | inconclusive: 12.6 µM [cytotoxic, partial curve] | 
60 | Cc1ccc(-n2ncc3c(NCCCc4ccccc4)ncnc32)cc1 | inconclusive: 0.0079 µM [cytotoxic, full curve, poor fit] | 
61 | COc1ccccc1N=C1SC(C(=O)Nc2ccc(F)cc2)CC(=O)N1C (stereo unspecified) | inconclusive: 35.5 µM [cytotoxic, single point] | 
62 | COc1cc(Cl)c(C)cc1NC(=O)c1cc2ccc3cccnc3c2[nH]1 | inconclusive: 10 µM [cytotoxic, single point] | 
63 | Cc1ccsc1/C=N\NC(=O)c1n[nH]c2c1CCC2 | inconclusive: 17.8 µM [cytotoxic, single point] | 
64 | O=C(NCCCc1nc2ccccc2n1Cc1cccc(Cl)c1)c1ccco1 |  | inactive: -21.1%
65 | Cc1ccc(-n2ncc3c(NCCCN4CCOCC4)ncnc32)cc1Cl | inconclusive: 15.8 µM [cytotoxic, partial curve] | 
66 | Cc1ccc2nc(NCc3ccccc3)c3nnnn3c2c1 | inconclusive: 0.316 µM [cytotoxic, full curve, poor fit] | 
67 | Cn1cccc1C(=O)N1CCC2(CC1)CCN(c1ccc(-c3ccccc3)cc1)CC2 | inconclusive: 10 µM [cytotoxic, single point] | 
68 | COc1cccc(C(=O)CN2C(=O)C(C)(C)Oc3ccc(C(=O)N4CCCCCC4)cc32)c1 | inconclusive: 15.8 µM [cytotoxic, single point] | 
69 | COc1ccc(-c2nc3ccccc3s2)cc1O | active: 2.51 µM | 
70 | CN(Cc1ccco1)c1cc(-c2ccc3c(c2)OCO3)ncn1 | inconclusive: 12.6 µM [cytotoxic, single point] | 
71 | COc1cc(-c2nc(S(=O)(=O)c3ccc(Br)cc3)c(N3CCOCC3)o2)cc(OC)c1OC | inconclusive: 0.0251 µM [cytotoxic, full curve, poor fit] | 
